{
  "source": "PubChem BioAssay AID588855",
  "about": "(National Center for Advancing Translational Sciences (NCATS), 2011)",
  "note": "The campaign covered roughly 410,000 compounds. About 5,000 (1.2%) were called active. The inconclusive results got no clear call from the source; some entries with a clear call stand among them for comparison. Calls come from the whole dose curve; as a rule, active = well fitted inhibition curve with a large enough effect; inconclusive = small, poorly fitted or top-dose-only effect; inactive = no such curve, though single readings can be large or run the other way. A potency beside an inconclusive call is a rough fit, not a confirmed value. Potency is the fitted concentration of half-maximal effect; tags give direction and shape of the fitted curve.",
  "data": [
    {"assay": "qHTS for Inhibitors of TGF-b; note: nearly all actives have a fitted effect of over 65% in size", "details": "HepG2 CAGA-GFP TGF-b/SMAD3 reporter, GFP fluorescence, 18 h, TGF-beta stimulated, 500 pg/mL final; series mostly up to 46.1 µM", "outline": "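GFP signal (ex488/em500-530) from TGF-beta-stimulated HEPG2 CAGA-GFP cells, 500 pg/mL final, 18 h at 37 degrees C in DMEM plus 1% FBS, normalized to unstimulated and DMSO-stimulated controls.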", "values": [
      {"smiles": "COc1cc2oc(=O)c(CC(=O)N3CCCCC3)c(C)c2cc1Cl", "Potency": "inactive"},
      {"smiles": "CC1CC(C)CN(C(=O)Cn2c(SCC(=O)N3CCc4ccccc4C3)nc3ccccc32)C1", "note": "(configuration not stated)", "Potency": "inconclusive: 15.8 µM [inhibitor, single point]"},
      {"smiles": "Cc1ccccc1NC(=O)c1cccc(N2C(=O)C3C4CC(C(Br)C4Br)C3C2=O)c1", "note": "(configuration not stated)", "Potency": "inactive"},
      {"smiles": "Cc1cccc(-n2c3nc(=O)[nH]c(=O)c-3cc3c(Cl)cccc32)c1C", "Potency": "inconclusive: 17.8 µM [inhibitor, single point]"},
      {"smiles": "CCOc1cc(/C=C/c2cc(C(=O)O)c3ccccc3n2)ccc1OC", "Potency": "inactive"},
      {"smiles": "OCC1OCOC2C(CO)OCOC12", "note": "(configuration not stated)", "Potency": "inactive"},
      {"smiles": "CCc1ccc(NS(=O)(=O)c2ccc3[nH]cc(C(=O)NCC4CCCO4)c(=O)c3c2)cc1", "note": "(configuration not stated)", "Potency": "inconclusive: 22.4 µM [inhibitor, partial curve, poor fit]"},
      {"smiles": "O=C(NCc1ccccn1)c1cccc(NS(=O)(=O)c2cccc(F)c2)c1", "Potency": "inactive"},
      {"smiles": "CN(C)CCOC(=O)Cc1ccc(Cl)cc1", "Potency": "inconclusive: 35.5 µM [inhibitor, single point]"},
      {"smiles": "COc1ccc(NC(=O)c2oc3ccccc3c2NC(=O)c2cc3ccccc3o2)cc1", "Potency": "inconclusive: 6.31 µM [inhibitor, full curve, poor fit]"},
      {"smiles": "Cc1onc(-c2ccccc2Cl)c1C(=O)NCc1ccc(N2CCCC2=O)cc1", "Potency": "inconclusive: 2.51 µM [inhibitor, partial curve, poor fit]"},
      {"smiles": "Cc1ccc(SCc2nc(-c3ccccc3)no2)cc1", "Potency": "inactive"},
      {"smiles": "Cc1ccccc1S(=O)(=O)Cc1ccc(C(=O)NC2CCCCC2)o1", "Potency": "inactive"},
      {"smiles": "O=[N+]([O-])c1ccc(O)c(C(C#Cc2ccccc2)N2CCOCC2)c1", "note": "(configuration not stated)", "Potency": "active: 12.6 µM"},
      {"smiles": "Clc1ccc(-c2cc(C3CCNCC3)[nH]n2)c(Cl)c1", "Potency": "inconclusive: 35.5 µM [inhibitor, single point]"},
      {"smiles": "Cc1cc(S(=O)(=O)Nc2ccc3cn[nH]c3c2)c(C)cc1Cl", "Potency": "inconclusive: 35.5 µM [inhibitor, single point]"},
      {"smiles": "O=c1c(Br)ccc(Br)cc1Br", "Potency": "active: 1.58 µM"},
      {"smiles": "CCOc1ccc(NS(=O)(=O)c2ccc3[nH]cc(C(=O)N(C)Cc4ccccc4)c(=O)c3c2)cc1", "Potency": "inconclusive: 28.2 µM [inhibitor, single point]"},
      {"smiles": "CN1CCN(c2nc(N3CCN(c4ccccc4)CC3)ncc2F)CC1", "Potency": "inactive"},
      {"smiles": "O=C(NC(=S)NNC(=O)c1cccs1)c1ccc(Br)o1", "Potency": "inconclusive: 8.91 µM [inhibitor, partial curve]"},
      {"smiles": "COc1ccc2c(c1)CC(NC(=O)Nc1c(C)cc(C)cc1C)CO2", "note": "(configuration not stated)", "Potency": "inactive"},
      {"smiles": "Cc1noc(/C=C/N(C)C)c1S(=O)(=O)N(C)CC(=O)N1CCc2ccccc21", "Potency": "inconclusive: 15.8 µM [inhibitor, single point]"},
      {"smiles": "O=C(Cn1cnc([N+](=O)[O-])n1)c1ccc(O)c(O)c1", "Potency": "inactive"},
      {"smiles": "OC(C#Cc1ccccn1)c1cccs1", "note": "(configuration not stated)", "Potency": "active: 15.8 µM"},
      {"smiles": "CC(=O)NCC(=O)OCN1C(=O)c2ccccc2C1=O", "Potency": "inconclusive: 35.5 µM [inhibitor, partial curve, poor fit]"},
      {"smiles": "Cc1ccc(-c2cn3cccc(C)c3n2)cc1", "Potency": "inconclusive: 35.5 µM [inhibitor, single point]"},
      {"smiles": "O=[N+]([O-])c1ccc(C(O)CSC(=S)N2CCCCC2)cc1", "note": "(configuration not stated)", "Potency": "inactive"},
      {"smiles": "CC(C)Cn1c(=O)oc2ccccc21", "Potency": "inconclusive: 1 µM [inhibitor, full curve, poor fit]"},
      {"smiles": "COc1ccc(CNC(=O)C(=O)NCCC2CCCCN2S(=O)(=O)c2ccc(C)cc2)cc1", "note": "(configuration not stated)", "Potency": "inactive"},
      {"smiles": "Cc1cccc(-c2noc(CCC(=O)N3CCN(c4cc(C)ccc4C)CC3)n2)c1", "Potency": "inconclusive: 25.1 µM [inhibitor, single point]"},
      {"smiles": "CCc1nnc(SCc2nc(-c3ccc(OC)c(OC)c3)oc2C)c2cc3sc(C)cc3n12", "Potency": "inactive"},
      {"smiles": "Cc1cccc(NC(=S)NNC(=O)CCn2cc(C)cn2)c1", "Potency": "inactive"},
      {"smiles": "O=C(c1ccccc1)n1ccc2ccccc21", "Potency": "inconclusive: 25.1 µM [inhibitor, single point]"},
      {"smiles": "CCOC(=O)C1=C(C)N=c2s/c(=C\\c3cccn3C)c(=O)n2C1c1cccc(OC)c1OC", "note": "(configuration not stated)", "Potency": "inactive"},
      {"smiles": "COc1ccc(OC)c(/C=N/N(C)c2ccccc2)c1", "Potency": "inconclusive: 3.98 µM [inhibitor, partial curve, poor fit]"},
      {"smiles": "Cc1ccc(CN(Cc2cccnc2)C(=S)Nc2cccc(Cl)c2C)cc1", "Potency": "inconclusive: 25.1 µM [inhibitor, single point]"},
      {"smiles": "O=C(NCc1ccc2c(c1)OCO2)c1cc([N+](=O)[O-])ccc1N1CCCCC1", "Potency": "inconclusive: 17.8 µM [inhibitor, partial curve]"},
      {"smiles": "Cc1cccc(NC(=O)CSc2nc(-c3ccccc3)cn2-c2ccccc2)c1C", "Potency": "inconclusive: 8.91 µM [inhibitor, partial curve]"},
      {"smiles": "Cc1ccc(C)c(-n2c(CCC(=O)O)ccc2-c2ccc(Cl)cc2)c1", "Potency": "inconclusive: 15.8 µM [inhibitor, single point]"},
      {"smiles": "O=C(Nc1ccc(Cl)cc1)N1CCN(c2ncccn2)CC1", "Potency": "inactive"},
      {"smiles": "Cc1ccc(Cl)cc1N1CCN(C(=O)COc2ccc(S(=O)(=O)NC(C)C)cc2)CC1", "Potency": "inconclusive: 12.6 µM [inhibitor, partial curve, poor fit]"},
      {"smiles": "CCOC(=O)c1sc(NC(=O)OC)c(C(=O)OC)c1C", "Potency": "inconclusive: 2.24 µM [inhibitor, partial curve, poor fit]"},
      {"smiles": "Cc1ccc(C(=O)CC2(O)C(=O)N(CCc3ccccc3)c3ccc(Cl)cc32)cc1", "note": "(configuration not stated)", "Potency": "active: 17.8 µM"},
      {"smiles": "Cn1c(=O)c2c(-c3ccccc3Cl)n(-c3cc(Cl)ccc3O)cc2n(C)c1=O", "Potency": "inconclusive: 11.2 µM [inhibitor, partial curve, poor fit]"},
      {"smiles": "CC1(C)C=Cc2c(ccc3c2OC[C@H](c2ccc(O)cc2O)C3)O1", "Potency": "inconclusive: 25.1 µM [inhibitor, single point]"},
      {"smiles": "COc1ccc(Cc2nnc(NS(=O)(=O)c3ccc(NC(C)=O)cc3)s2)cc1", "Potency": "inconclusive: 1.12 µM [inhibitor, single point]"},
      {"smiles": "CN(C(=O)CSc1ncnc2scc(-c3ccccc3)c12)C1CCS(=O)(=O)C1", "note": "(configuration not stated)", "Potency": "inactive"},
      {"smiles": "O=S(=O)(c1ccc(Cl)c(C(F)(F)F)c1)N1CCN(CC(O)COCC2CCCO2)CC1", "note": "(configuration not stated)", "Potency": "inactive"},
      {"smiles": "COc1ccc(S(=O)(=O)N2CCCCCC2)cc1C(=O)N(C)CC(=O)Nc1ccccc1Br", "Potency": "inactive"},
      {"smiles": "COC(C)(C)[C@]12CC(O)(C(C)C)ON1[C@H]1CCCCC1N2O", "note": "(some centres not stated)", "Potency": "inconclusive: 6.31 µM [inhibitor, single point]"},
      {"smiles": "Cc1ccc(CNC(=O)c2cc3c(C)nc4ccccc4c3o2)cc1", "Potency": "inconclusive: 11.2 µM [inhibitor, partial curve]"},
      {"smiles": "CCOc1ccc([C@@H]2CC=C(C(=O)O)[C@H](c3cccc(Cl)c3)N2S(=O)(=O)c2ccc(C)cc2)cc1", "Potency": "inconclusive: 6.31 µM [inhibitor, full curve, poor fit]"},
      {"smiles": "O=C(NC(=S)Nc1cc([N+](=O)[O-])ccc1O)c1cccnc1", "Potency": "inactive"},
      {"smiles": "Cc1c(/C=N/NC(=O)C(NC(=O)c2ccc3c(c2)OCO3)C(C)C)c2ccccc2n1C", "note": "(configuration not stated)", "Potency": "inconclusive: 14.1 µM [inhibitor, single point]"},
      {"smiles": "Cc1nc(Nc2ccccc2Cl)sc1C(=O)Nc1ccccc1", "Potency": "inactive"},
      {"smiles": "CCCCCC(O)(c1ccccc1)C(CN1CCOCC1)c1ccccc1", "note": "(configuration not stated)", "Potency": "inconclusive: 25.1 µM [inhibitor, single point]"},
      {"smiles": "N#C/C(=C(/O)c1ccccc1F)c1nc2cc(C(F)(F)F)ccc2s1", "Potency": "inconclusive: 17.8 µM [inhibitor, single point]"},
      {"smiles": "O=C1Cc2ccccc2C(=O)N1c1cccc(Cl)c1", "Potency": "inactive"},
      {"smiles": "COc1ccc(C2C(O)C(c3c[nH]c4ccccc34)=NN2C(=O)CCl)cc1", "note": "(configuration not stated)", "Potency": "active: 2.24 µM"},
      {"smiles": "O=C(Nc1ncc2c(n1)-c1ccccc1CC2)C1CC1", "Potency": "inconclusive: 5.62 µM [inhibitor, partial curve, poor fit]"},
      {"smiles": "COC(=O)c1ccc(C)c(NS(=O)(=O)c2ccc(NC(C)=O)cc2)c1", "Potency": "inactive"},
      {"smiles": "CCn1c(=O)c2cc(C(=O)N(CCN(C)C)Cc3ccccc3)sc2c2ccccc21", "Potency": "inconclusive: 35.5 µM [inhibitor, single point]"},
      {"smiles": "Cc1cc(C)nc(SCc2cc(=O)c(OC(=O)c3ccc(S(=O)(=O)N4CCCC4)cc3)co2)n1", "Potency": "inconclusive: 3.98 µM [inhibitor, single point]"},
      {"smiles": "N#CCC(=O)N/N=C/c1ccc(Sc2nc3ccccc3s2)o1", "Potency": "inactive"},
      {"smiles": "COc1ccc(NC(=O)Cn2nnc3sc4c(c3c2=O)CCC(C)C4)c(OC)c1", "note": "(configuration not stated)", "Potency": "inconclusive: 35.5 µM [inhibitor, single point]"},
      {"smiles": "Cc1ncc(CN2CCC(C(=O)Nc3cccc(-c4cscn4)c3)CC2)cn1", "Potency": "inconclusive: 4.47 µM [inhibitor, partial curve, poor fit]"},
      {"smiles": "Cc1cccc(NC(=O)C2Cc3ccccc3CN2C(=O)OCc2ccccc2)c1C", "note": "(configuration not stated)", "Potency": "inconclusive: 35.5 µM [inhibitor, single point]"},
      {"smiles": "COC(=O)c1ccc(NC(=S)NC(=O)c2c(Cl)cnn2C)cc1", "Potency": "inactive"},
      {"smiles": "Cn1cccc1/C=N/N1CCN(Cc2cccc3ccccc23)CC1", "Potency": "inconclusive: 35.5 µM [inhibitor, single point]"},
      {"smiles": "O=S(=O)(Nc1ccccc1Br)c1cccc2cccnc12", "Potency": "inactive"},
      {"smiles": "CC1CC(C)CN(C(=O)c2cccc(S(=O)(=O)Nc3cc(C(F)(F)F)ccc3Cl)c2)C1", "note": "(configuration not stated)", "Potency": "inconclusive: 35.5 µM [inhibitor, single point]"},
      {"smiles": "COc1cccc(OC)c1C(=O)N1CCN(Cc2c[nH]c3ccccc23)CC1", "Potency": "inactive"}
    ]}
  ]
}
